According to patent US20210340213A1 (BEIJING VDJBIO, published 2021):
Blank lines part the entries; values can stand above or below the binder they belong to.

What was measured:
CD86 [1] = biological target: T1, CD86 (UniProt P42081 24-247, limits assumed); test: SPR as in Example 1, pH 6.0; CD86 analyte
T1 construct: also called B7-2
T1 sequence (looked up): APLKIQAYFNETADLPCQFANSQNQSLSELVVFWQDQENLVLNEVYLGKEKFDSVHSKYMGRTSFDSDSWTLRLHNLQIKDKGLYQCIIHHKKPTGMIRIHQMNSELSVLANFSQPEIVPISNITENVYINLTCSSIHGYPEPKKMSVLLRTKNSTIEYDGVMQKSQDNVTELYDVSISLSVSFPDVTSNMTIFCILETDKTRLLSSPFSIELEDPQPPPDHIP

CD80 [2] = biological target: T2, CD80 (UniProt P33681 35-242, limits assumed); test: SPR BIAcore 3000, 25 C; CTLA4-Ig on chip, CD80 analyte
T2 construct: also called B7-1
T2 sequence (looked up): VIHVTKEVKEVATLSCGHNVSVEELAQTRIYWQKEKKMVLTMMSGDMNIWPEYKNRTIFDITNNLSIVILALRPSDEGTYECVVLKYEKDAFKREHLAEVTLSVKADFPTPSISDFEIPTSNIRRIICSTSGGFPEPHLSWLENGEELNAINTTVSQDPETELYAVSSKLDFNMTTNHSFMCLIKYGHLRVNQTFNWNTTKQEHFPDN

CD80 [3] = biological target: T2, CD80; test: SPR at pH 7.4 and pH 6.0; CD80 analyte
CD80 [4] = biological target: T2, CD80; test: SPR BIAcore 3000, 25 C; CTLA4-Ig on chip, CD80 analyte; remark: listed apart in the source
CD86 [5] = biological target: T1, CD86; test: SPR BIAcore 3000, 25 C; CTLA4-Ig on chip, CD86 analyte
CD86 [6] = biological target: T1, CD86; test: SPR as in Example 1, pH 7.4; CD86 analyte
CD86 [7] = biological target: T1, CD86; test: SPR at pH 7.4 and pH 6.0; CD86 analyte
CD80 [8] = biological target: T2, CD80; test: SPR as in Example 1, pH 6.0; CD80 analyte
CD86 [9] = biological target: T1, CD86; test: SPR BIAcore 3000, 25 C; CTLA4-Ig on chip, CD86 analyte; remark: listed apart in the source
CD80 [10] = biological target: T2, CD80; test: SPR as in Example 1, pH 7.4; CD80 analyte

- Kd (CD86 [1]): 2.99 nM
- koff (CD86 [1]): 0.00133 s⁻¹
- kon (CD86 [1]): 445000 M⁻¹ s⁻¹
- Kd (CD80 [2]): 0.0849 nM
- koff (CD80 [2]): 3.02e-05 s⁻¹
- kon (CD80 [2]): 356000 M⁻¹ s⁻¹
- pH dependence (Fold of affinity decrease), KD pH 6.0 / KD pH 7.4 (CD80 [3]): 3.94 fold
- Kd (CD80 [4]): 0.0674 nM
- Relative affinity (KD(abatacept)/KD(variant)) (CD80 [4]): 44.4
- koff (CD80 [4]): 2.28e-05 s⁻¹
- kon (CD80 [4]): 338000 M⁻¹ s⁻¹
- Kd (CD86 [5]): 0.4 nM
- koff (CD86 [5]): 0.000161 s⁻¹
- kon (CD86 [5]): 404000 M⁻¹ s⁻¹
- Kd (CD86 [6]): 0.4 nM
- koff (CD86 [6]): 0.000161 s⁻¹
- kon (CD86 [6]): 404000 M⁻¹ s⁻¹
- pH dependence (Fold of affinity decrease), KD pH 6.0 / KD pH 7.4 (CD86 [7]): 7.48 fold
- Kd (CD80 [8]): 0.335 nM
- koff (CD80 [8]): 0.000107 s⁻¹
- kon (CD80 [8]): 319000 M⁻¹ s⁻¹
- Kd (CD86 [9]): 0.497 nM
- Relative affinity (KD(abatacept)/KD(variant)) (CD86 [9]): 14.1
- koff (CD86 [9]): 0.000179 s⁻¹
- kon (CD86 [9]): 360000 M⁻¹ s⁻¹
- Kd (CD80 [10]): 0.0849 nM
- koff (CD80 [10]): 3.02e-05 s⁻¹
- kon (CD80 [10]): 356000 M⁻¹ s⁻¹
B1: CTLA4-Ig variant 133# (Fc fusion)
chain: MHVAQPAVVLASSRGIASFVCEYASPDKAKATEVRVTVLRQADSQVTEVCAATYMMGNELTFLDDSICTFTSSGNQVNLTIQGLRAMDTGLYICMVELMYPPPYYLGIGNGTQIYVIDPEPCPDSDQ[human IgG1 Fc with changes not given here]

- Kd (CD86 [1]): 1.72 nM
- koff (CD86 [1]): 0.000636 s⁻¹
- kon (CD86 [1]): 371000 M⁻¹ s⁻¹
- Kd (CD80 [2]): 0.0664 nM
- koff (CD80 [2]): 2.31e-05 s⁻¹
- kon (CD80 [2]): 348000 M⁻¹ s⁻¹
- pH dependence (Fold of affinity decrease), KD pH 6.0 / KD pH 7.4 (CD80 [3]): 3.01 fold
- Kd (CD86 [5]): 0.0353 nM
- koff (CD86 [5]): 1.22e-05 s⁻¹
- kon (CD86 [5]): 347000 M⁻¹ s⁻¹
- Kd (CD86 [6]): 0.0353 nM
- koff (CD86 [6]): 1.22e-05 s⁻¹
- kon (CD86 [6]): 347000 M⁻¹ s⁻¹
- pH dependence (Fold of affinity decrease), KD pH 6.0 / KD pH 7.4 (CD86 [7]): 48.7 fold
- Kd (CD80 [8]): 0.2 nM
- koff (CD80 [8]): 6.04e-05 s⁻¹
- kon (CD80 [8]): 302000 M⁻¹ s⁻¹
- Kd (CD80 [10]): 0.0664 nM
- koff (CD80 [10]): 2.31e-05 s⁻¹
- kon (CD80 [10]): 348000 M⁻¹ s⁻¹
B2: CTLA4-Ig variant 142# (Fc fusion)
chain: MHVAQPAVVLASSRGIASFVCEYASPDKAKATEVRVTVLRQTDSQVTEVCAATYMMGNELTFLDDSICTFTSSGNQVNLTIQGLRAMDTGLYICMVELMYPPPYYLGIGNGTQIYVIDPEPCPDSDQ[human IgG1 Fc with changes not given here]
